Biological target: CRBN(delta 1-40)/DDB1(delta BPB) (Homo sapiens, UniProt Q96SW2)
Assay: Covalent labeling of CRBN, intact protein mass spectrometry
Details: 15 μM protein stock, 6 h at room temperature; for % modified (15 μM): 15 μM compound; for % modified (150 μM): 150 μM compound

| SMILES | % modified (15 μM) | % modified (150 μM) |
| --- | --- | --- |
| O=C1CCC(Oc2cccc(S(=O)(=O)F)c2)C(=O)N1 (stereo not shown) [Compound A-1, 3-((2,6-dioxopiperidin-3-yl)oxy)benzenesulfonyl fluoride] | ++++ (≥20% and <40%= ++++) | ++++ (≥20% and <40%= ++++) |
| O=C1CCC(N2C(=O)c3ccc(OS(=O)(=O)F)cc3C2=O)C(=O)N1 (stereo not shown) [Compound A-2, 2-(2,6-dioxopiperidin-3-yl)-1,3-dioxoisoindolin-5-yl sulfurofluoridate] | ++++ (≥20% and <40%= ++++) | ++++++ (≥60% and <80% = ++++++) |
| O=C1CCC(N2C(=O)c3ccc(S(=O)(=O)F)cc3C2=O)C(=O)N1 (stereo not shown) [Compound A-3, 2-(2,6-dioxo-3-piperidyl)-1,3-dioxo-isoindoline-5-sulfonyl fluoride] | + (<5% = +) | + (<5% = +) |
| O=C1CCC(N2Cc3ccc(S(=O)(=O)F)cc3C2=O)C(=O)N1 (stereo not shown) [Compound A-4, 2-(2,6-dioxopiperidin-3-yl)-3-oxoisoindoline-5-sulfonyl fluoride] | +++++ (≥40% and <60% = +++++) | ++++++ (≥60% and <80% = ++++++) |
| O=C1CCC(Oc2cccc(OS(=O)(=O)F)c2)C(=O)N1 (stereo not shown) [Compound A-5, 3-((2,6-dioxopiperidin-3-yl)oxy)phenyl sulfurofluoridate] | ++++ (≥20% and <40%= ++++) | +++++ (≥40% and <60% = +++++) |
| O=C1CCC(N2C(=O)c3cc(S(=O)(=O)F)cc4cccc2c34)C(=O)N1 (stereo not shown) [Compound A-6, 1-(2,6-dioxopiperidin-3-yl)-2-oxo-1,2-dihydrobenzo[cd]indole-4-sulfonyl fluoride] | ++++++ (≥60% and <80% = ++++++) | ++++++ (≥60% and <80% = ++++++) |
| O=C1CCC(N2C(=O)c3cc(OS(=O)(=O)F)cc4cccc2c34)C(=O)N1 (stereo not shown) [Compound A-7, 1-(2,6-dioxopiperidin-3-yl)-2-oxo-1,2-dihydrobenzo[cd]indol-4-yl sulfurofluoridate] | +++++ (≥40% and <60% = +++++) | ++++++ (≥60% and <80% = ++++++) |
| Cn1nc(N2CCC(=O)NC2=O)c2cccc(S(=O)(=O)F)c21 [Compound A-10, 3-(2,4-dioxotetrahydropyrimidin-1(2H)-yl)-1-methyl-1H-indazole-7-sulfonyl fluoride] | +++++ (≥40% and <60% = +++++) | +++++ (≥40% and <60% = +++++) |
| CN(c1cccc(S(=O)(=O)F)c1)C1CCC(=O)NC1=O (stereo not shown) [Compound A-11, 3-((2,6-dioxopiperidin-3-yl)(methyl)amino)benzenesulfonyl fluoride] | +++++ (≥40% and <60% = +++++) | ++++++ (≥60% and <80% = ++++++) |
| O=C1CCC(c2ccc(S(=O)(=O)F)cc2)C(=O)N1 (stereo not shown) [Compound A-12, 4-(2,6-dioxopiperidin-3-yl)benzenesulfonyl fluoride] | +++++ (≥40% and <60% = +++++) | ++++++ (≥60% and <80% = ++++++) |
| Cc1ccc(OC2CCC(=O)NC2=O)cc1S(=O)(=O)F (stereo not shown) [Compound A-13, 5-[(2,6-dioxo-3-piperidyl)oxy]-2-methyl-benzenesulfonyl fluoride] | ++++ (≥20% and <40%= ++++) | +++++ (≥40% and <60% = +++++) |
| O=C1CCN(c2ccc(S(=O)(=O)F)cc2)C(=O)N1 [Compound A-14, 4-(2,4-dioxotetrahydropyrimidin-1(2H)-yl)benzenesulfonyl fluoride] | +++++ (≥40% and <60% = +++++) | +++++++ (≥80% = +++++++) |
| O=C1CCN(c2ccc(OS(=O)(=O)F)cc2)C(=O)N1 [Compound A-15, 4-(2,4-dioxotetrahydropyrimidin-1(2H)-yl)phenyl sulfurofluoridate] | + (<5% = +) | + (<5% = +) |
| COc1ccc(OC2CCC(=O)NC2=O)cc1S(=O)(=O)F (stereo not shown) [Compound A-16, 5-[(2,6-dioxo-3-piperidyl)oxy]-2-methoxy-benzenesulfonyl fluoride] | +++++++ (≥80% = +++++++) | +++++++ (≥80% = +++++++) |
| Cc1cc(OC2CCC(=O)NC2=O)cc(S(=O)(=O)F)c1 (stereo not shown) [Compound A-17, 3-[(2,6-dioxo-3-piperidyl)oxy]-5-methyl-benzenesulfonyl fluoride] | ++++ (≥20% and <40%= ++++) | +++++ (≥40% and <60% = +++++) |
| CN(c1cccc(OS(=O)(=O)F)c1)C1CCC(=O)NC1=O (stereo not shown) [Compound A-18, 3-((2,6-dioxopiperidin-3-yl)(methyl)amino)phenyl sulfurofluoridate] | + (<5% = +) | + (<5% = +) |
| Cc1ccc(OC2CCC(=O)NC2=O)cc1OS(=O)(=O)F (stereo not shown) [Compound A-19, 5-((2,6-dioxopiperidin-3-yl)oxy)-2-methylphenyl sulfurofluoridate] | ++++ (≥20% and <40%= ++++) | +++++++ (≥80% = +++++++) |
| Cc1cc(OC2CCC(=O)NC2=O)cc(OS(=O)(=O)F)c1 (stereo not shown) [Compound A-20, 3-((2,6-dioxopiperidin-3-yl)oxy)-5-methylphenyl sulfurofluoridate] | +++ (≥10% and <20% = +++) | ++++ (≥20% and <40%= ++++) |

| SMILES | % modified (15 μM) | % modified (150 μM) |
| --- | --- | --- |
| COc1cc(OC2CCC(=O)NC2=O)cc(OS(=O)(=O)F)c1 (stereo not shown) [Compound A-21, 3-(3-fluorosulfonyloxy-5-methoxy-phenoxy)-2,6-dioxo-piperidine] | +++ (≥10% and <20% = +++) | +++++ (≥40% and <60% = +++++) |
| COc1cc(OC2CCC(=O)NC2=O)cc(S(=O)(=O)F)c1 (stereo not shown) [Compound A-22, 3-((2,6-dioxopiperidin-3-yl)oxy)-5-methoxybenzenesulfonyl fluoride] | ++ (≥5% and <10% = ++) | +++ (≥10% and <20% = +++) |
| O=C1CCC(c2cccc(OS(=O)(=O)F)c2)C(=O)N1 (stereo not shown) [Compound A-23, 3-(2,6-dioxopiperidin-3-yl)phenyl sulfurofluoridate] | + (<5% = +) | + (<5% = +) |
| O=C1CCC(CNc2cccc(S(=O)(=O)F)c2)C(=O)N1 (stereo not shown) [Compound A-24, 3-(((2,6-dioxopiperidin-3-yl)methyl)amino)benzenesulfonyl fluoride] | +++++ (≥40% and <60% = +++++) | ++++++ (≥60% and <80% = ++++++) |
| O=C1CCC(c2ccc(OS(=O)(=O)F)cc2)C(=O)N1 (stereo not shown) [Compound A-25, 4-(2,6-dioxopiperidin-3-yl)phenyl sulfurofluoridate] | + (<5% = +) | ++ (≥5% and <10% = ++) |
| CN1C(=O)CCC(N2C(=O)c3ccc(OS(=O)(=O)F)cc3C2=O)C1=O (stereo not shown) [Compound A-26, 2-(1-methyl-2,6-dioxopiperidin-3-yl)-1,3-dioxoisoindolin-5-yl sulfurofluoridate] | + (<5% = +) | + (<5% = +) |
| COc1ccc(OC2CCC(=O)NC2=O)cc1OS(=O)(=O)F (stereo not shown) [Compound A-27, 5-((2,6-dioxopiperidin-3-yl)oxy)-2-methoxyphenyl sulfurofluoridate] | + (<5% = +) | ++++++ (≥60% and <80% = ++++++) |
| O=C1CCC(Oc2ccc(OS(=O)(=O)F)cn2)C(=O)N1 (stereo not shown) [Compound A-28, 6-((2,6-dioxopiperidin-3-yl)oxy)pyridin-3-yl sulfurofluoridate] | + (<5% = +) | + (<5% = +) |
| O=C1CCC(n2c(=O)oc3c(S(=O)(=O)F)cccc32)C(=O)N1 (stereo not shown) [Compound A-29, 3-(2,6-dioxopiperidin-3-yl)-2-oxo-2,3-dihydrobenzo[d]oxazole-7-sulfonyl fluoride] | + (<5% = +) | + (<5% = +) |
| Cn1nc(N2CCC(=O)NC2=O)c2cccc(OS(=O)(=O)F)c21 [Compound A-30, 3-(2,4-dioxotetrahydropyrimidin-1(2H)-yl)-1-methyl-1H-indazol-7-yl sulfurofluoridate] | + (<5% = +) | ++++ (≥20% and <40%= ++++) |
| O=C1NC(=O)C2(Nc3ccc(S(=O)(=O)F)cc3)CC1C2 [Compound A-33, 4-((2,4-dioxo-3-azabicyclo[3.1.1]heptan-1-yl)amino)benzenesulfonyl fluoride] | + (<5% = +) | + (<5% = +) |
| O=C1NC(=O)C2(c3ccc(S(=O)(=O)F)cc3)CC1C2 [Compound A-34, 4-(2,4-dioxo-3-azabicyclo[3.1.1]heptan-1-yl)benzenesulfonyl fluoride] | + (<5% = +) | ++ (≥5% and <10% = ++) |
| O=C1CCN(c2ccc(C3CCNCC3)c(OS(=O)(=O)F)c2)C(=O)N1 [Compound A-35, 5-(2,4-dioxotetrahydropyrimidin-1(2H)-yl)-2-(piperidin-4-yl)phenyl sulfurofluoridate] | + (<5% = +) | + (<5% = +) |
| O=C1CCC(c2ccc(N3CCNCC3)c(OS(=O)(=O)F)c2)C(=O)N1 (stereo not shown) [Compound A-36, 5-(2,6-dioxopiperidin-3-yl)-2-(piperazin-1-yl)phenyl sulfurofluoridate] | + (<5% = +) | + (<5% = +) |
| O=C1NC(=O)C2(c3ccc(OS(=O)(=O)F)cc3)CC1C2 [Compound A-37, 4-(2,4-dioxo-3-azabicyclo[3.1.1]heptan-1-yl)phenyl sulfurofluoridate] | + (<5% = +) | + (<5% = +) |
| O=C1CCC(Oc2ccc(C3CCNCC3)c(S(=O)(=O)F)c2)C(=O)N1 (stereo not shown) [Compound A-38, 5-((2,6-dioxopiperidin-3-yl)oxy)-2-(piperidin-4-yl)benzenesulfonyl fluoride] | + (<5% = +) | + (<5% = +) |
| O=C1CCC(CNc2cccc(OS(=O)(=O)F)c2)C(=O)N1 (stereo not shown) [Compound A-40, 3-(((2,6-dioxopiperidin-3-yl)methyl)amino)phenyl sulfurofluoridate] | + (<5% = +) | + (<5% = +) |

Reference: US20260274856A1, “COVALENT CEREBLON LIGANDS” (C4 THERAPEUTICS, INC., priority 2023, published 2026)
